# Out of some 270,000 compounds screened, about 620 (0.23%) were called active. This list was built around the results that the source calls inconclusive (neither active nor inactive); the mix of calls is not that of the screen. The call rests on the fitted dose curve; in most records, active means well fitted inhibition curve with a large enough effect in the polarisation, with a control signal flat (not every such curve was filed as active); inconclusive means small, poorly fitted or top-dose-only effect, or effect the other way, or a change in a side signal; inactive means no such curve, though single readings can be large or run the other way; the % refers to the polarisation. Where the call is inconclusive, the potency comes from a doubtful curve fit. A note “side channel” means that the fit belongs to a control or component signal, not to the main read-out.
# Target: Menin (Homo sapiens) (UniProt O00255)
# Sequence of UniProt O00255 (O00255 whole entry, looked up): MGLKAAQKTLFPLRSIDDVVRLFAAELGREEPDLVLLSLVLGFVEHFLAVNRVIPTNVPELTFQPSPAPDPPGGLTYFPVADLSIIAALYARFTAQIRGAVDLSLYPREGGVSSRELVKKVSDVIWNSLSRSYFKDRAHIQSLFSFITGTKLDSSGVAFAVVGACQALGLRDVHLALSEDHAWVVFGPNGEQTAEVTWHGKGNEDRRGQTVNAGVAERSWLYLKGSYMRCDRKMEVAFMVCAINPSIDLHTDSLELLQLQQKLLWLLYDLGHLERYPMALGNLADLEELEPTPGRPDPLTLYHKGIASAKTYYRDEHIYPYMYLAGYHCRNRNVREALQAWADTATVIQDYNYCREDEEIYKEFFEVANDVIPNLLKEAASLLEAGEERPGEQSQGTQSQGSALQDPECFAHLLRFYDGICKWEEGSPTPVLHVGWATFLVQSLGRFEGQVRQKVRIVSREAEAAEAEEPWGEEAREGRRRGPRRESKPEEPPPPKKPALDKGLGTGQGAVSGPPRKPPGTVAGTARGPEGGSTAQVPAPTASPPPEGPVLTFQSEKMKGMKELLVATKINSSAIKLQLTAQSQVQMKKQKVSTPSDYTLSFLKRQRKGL
# Test: qHTS Assay for Inhibitors Targeting the Menin-MLL Interaction in MLL Related Leukemias: Competition With Texas Red Labeled MLL-derived Mutant Peptide
# Settings: fluorescence polarization; series mostly up to 61.6 µM
# From the text: qHTS Assay for Inhibitors Targeting the Menin-MLL Interaction in MLL Related Leukemias NIH Chemical Genomics Center [NCGC] NIH Molecular Libraries Probe Centers Network [MLPCN] MLPCN Grant: MH084875-01A1 Assay Submitter (PI): Jolanta Grembecka, Tomasz Cierpicki, University of Virginia Translocations of the MLL (Mixed Lineage Leukemia) gene are frequently found in human leukemias affecting both children and adults. Fusion of MLL to one of more than 60 genes results in generation of oncogenic proteins upregulating Hox genes, which are vital to blood cell development. Patients harboring fusion of the MLL gene suffer from aggressive leukemias and respond poorly to available therapies. All of the oncogenic fusion proteins have a preserved N-terminal fragment of MLL that has been identified to interact with menin. It has been recently discovered that association with menin is critical to the leukemogenic activity of the MLL fusion oncoproteins. Selective targeting of the menin-MLL interaction could provide an attractive therapeutic approach to develop novel drugs for MLL-related leukemias. Small molecules blocking the menin-MLL interaction should reverse the oncogenic potential of MLL fusion proteins. We have developed and optimized a fluorescence polarization-based assay for the identification of Menin-MLL inhibitors. The assay was run employing two different MLL-derived peptides. The present assay uses a 12 amino acid peptide labeled with fluorescein at its N-terminus. This peptide consists of the menin high affinity binding motif from MLL and is potently bound by menin. Another peptide with a mutated sequence, labeled with Texas Red, was used in parallel as a less stringent screen for inhibitors.
# The Menin protein, the MLL-wild type (w.t.) derived peptide (N-terminal 12 amino acids), the MLL-derived peptide labeled with Texas Red and the MLL-w.t. peptide labeled with Fluorescein were kindly supplied by laboratory of Dr. Jolanta Grembecka, University of Virginia. All protein and peptide solutions were stored in single use aliquots at -80C. The Eu3+ Cyrptate-conjugated mouse monoclonal antibody anti-6 Histidine (Eu3+-AB) and the Streptavidin-XL665 conjugate (XL665) were purchased from Cisbio International (Bedford, MA). All antibody and XL665 conjugate solution stocks were stored in single use aliquots at -20C. The Buffer components for all assays were purchased from Sigma-Aldrich (St. Louis, MO) and Invitrogen (Carlsbad, CA). FP Assay Reagents: 1. FP reaction buffer: 50 mM Tris-HCl pH 7.5, 50 mM NaCl, 1mM DTT. Before use, 0.05% BSA is added. 2. Menin protein, MLL-w.t. labeled with fluorescein, MLL-mutant peptide labeled with texas red. Stored in singe use aliquots at -80C. 3. MLL-w.t. unlabeled peptide as positive control: 10 uM final in FP buffer. FP Assay Procedure: 1. Prepare Menin at 200 nM, MLL-w.t.-fluorescein at 25 nM, and MLL-mutant-texas red at 50 nM mixture in FP buffer. 2. Prepare Menin at 200 nM, MLL-w.t.-fluorescein at 25 nM, MLL-mutant-texas red at 50 nM, and 10 uM MLL-w.t. unlabeled mixture in FP buffer. 3. Prepare MLL-w.t.-fluorescein at 25 nM and MLL-mutant-texas red at 50 nM mixture in FP buffer. 3. Dispense 4 ul per well of reagent in step 1 in columns 2, 4 - 48 in a black 1536 well plate, dispense 4 ul per well of reagents from steps 2 and 3 in columns 1 and 3 respectively. Incubate plate at ambient for 15 minutes. 4. Transfer 23 nl per well of compound to plate and incubate at ambient for 1 hr. 5. Read fluorescence polarization for each label using the PerkinElmer Envision. Envision protocol for fluorescein: FITC FP Dual Enh Mirror, Excitation filter 480, Emission filter (1) P-pol 535, Emission filter (2) S-pol 535 Envision protocol for texas red: FP Dual Enh Mirror, Excitation filter 555, Emission filter (1) P-pol 632, Emission filter (2) S-pol 632
# Potency means the concentration at half of the fitted maximal effect; tags describe the fitted curve by direction and shape or compound fluorescence and quenching.
row,Structure (SMILES),Potency
1,FC(F)(F)c1ccc2c(c1)N(CCCN1CCN(CCCl)CC1)c1ccccc1S2,"inconclusive: 17.8 µM [fluorescent, side channel, single point]"
2,COc1ccc(/C=C/C(=O)c2c(O)n(CCC3=CCCCC3)c(=O)[nH]c2=O)cc1,"inconclusive: 12.6 µM [inhibitor, partial curve]"
3,O=C1NC(=S)NC(=O)C1=Cc1ccc(Br)s1,inactive
4,O=C(N/N=C\c1ccc(COc2ccc([N+](=O)[O-])cc2)o1)c1cccc(Cl)c1,"inconclusive: 2.51 µM [quencher, side channel, full curve, poor fit]"
5,CCCSc1ccc2nc(NC(=O)OC)[nH]c2c1,"inconclusive: 12.6 µM [quencher, side channel, partial curve]"
6,COc1cccc(CC(=O)N2CCN(Cc3cccc(Cl)c3)CC2)c1,"inconclusive: 25.1 µM [inhibitor, partial curve]"
7,COc1cccc(N2C(=O)NC(=O)/C(=C\c3cn(C)c4ccccc34)C2=O)c1,"inconclusive: 39.8 µM [fluorescent, side channel, single point]"
8,O=C(Nc1ccc(Br)cc1)c1cc(Br)cc(Br)c1O,"inconclusive: 14.1 µM [quencher, side channel, partial curve]"
9,CC(C)CCCC(C)C1CCC2C3=CC[C@@H]4CC(O)CC[C@@]4(C)C3CC[C@]21C (some centres not stated),"inconclusive: 10 µM [inhibitor, partial curve]"
10,CCOc1ccc(S(=O)(=O)NCc2ccc3c(c2)OCO3)cc1C,"inconclusive: 10 µM [inhibitor, partial curve]"
11,C/C(=C/CCC(C)[C@H]1CC[C@@]2(C)C3=C(CC[C@]12C)[C@@]1(C)CCC(=O)C(C)(C)[C@@H]1CC3)C(=O)O (some centres not stated),"inconclusive: 39.8 µM [quencher, side channel, single point]"
12,COC(=O)c1ccc(Cl)c(NC(=O)CN2CCN(Cc3ccccc3)CC2)c1,"inconclusive: 11.2 µM [inhibitor, partial curve, poor fit]"
13,O=c1[nH]c(SCc2ccccc2Cl)nc2c1CCCC2,"inconclusive: 22.4 µM [inhibitor, partial curve]"
14,C/C=C(\C)C(=O)N[C@@H](c1ccccc1)[C@@H](O)C(=O)O[C@H]1C[C@@]2(O)[C@@H](OC(=O)c3ccccc3)C3[C@](C)(C(=O)[C@H](OC(C)=O)C(=C1C)C2(C)C)[C@@H](O)C[C@H]1OC[C@@]31OC(C)=O (some centres not stated),"inconclusive: 5.62 µM [inhibitor, partial curve]"
15,Clc1cccc(/C=N\Nc2nccs2)c1,"inconclusive: 25.1 µM [quencher, side channel, partial curve]"
16,NC(Cc1ccc(N(CCCl)CCCl)cc1)C(=O)O (configuration not stated),"inconclusive: 28.2 µM [inhibitor, single point]"
17,CCN(CC)CCOC(=O)C(O)(c1ccccc1)c1ccccc1,"inconclusive: 17.8 µM [inhibitor, partial curve]"
18,CCOc1cc2c(cc1OCC)-n1cccc1C(c1ccccc1OC)NC2 (configuration not stated),"inconclusive: 14.1 µM [fluorescent, side channel, partial curve]"
19,CCOP(=O)(OCC)c1nc(-c2ccc(Cl)cc2)oc1NCc1ccccc1,"inconclusive: 7.94 µM [fluorescent, side channel, full curve, poor fit]"

row,Structure (SMILES),Potency
1,C=C(CO)CC1CC(O)[C@]2(C)OC3CC4OC5C[C@]6(C)O[C@]7(C)CCC8OC9C[C@]%10(C)OC%11C(C)=CC(=O)OC%11CC%10OC9C[C@@H](C)C8OC7CC6O[C@]5(C)C/C=C\C4OC3CC2O1 (some centres not stated),"inconclusive: 1.12 µM [fluorescent, side channel, full curve, poor fit]"
2,CCN1C(=O)c2ccccc2Sc2ccc(C(=O)N3CCC4(CC3)OCCO4)cc21,"inconclusive: 14.1 µM [fluorescent, side channel, single point]"
3,CN(C)C(=O)Oc1cccc([N+](C)(C)C)c1,"inconclusive: 39.8 µM [fluorescent, side channel, single point]"
4,CC(C)(C)OC(=O)c1ncn2c1[C@@H]1CCCN1C(=O)c1c(Br)cccc1-2,"inconclusive: 25.1 µM [inhibitor, single point]"
5,O=C1NC(=O)C(=Cc2ccc(-c3ccc(F)cc3O)o2)C(=O)N1,"inconclusive: 20 µM [quencher, side channel, partial curve]"
6,CCN(CC)C(=O)N[C@@H]1C=C2c3cccc4[nH]cc(c34)C[C@H]2N(C)C1,inactive
7,CCOc1ccc(CC2C(=O)NC(=O)N(c3ccc(CC)cc3)C2=O)cc1 (configuration not stated),"inconclusive: 39.8 µM [quencher, side channel, single point]"
8,CCCCN1C(=O)/C(=C/c2ccc(N3CCCCCC3)cc2)C(=O)NC1=S,"inconclusive: 31.6 µM [inhibitor, single point]"
9,N#Cc1ccccc1Cn1cc(C(=O)c2cccs2)c2ccccc21,"inconclusive: 3.16 µM [quencher, side channel, full curve]"
10,O=P(NC(c1ccccc1)c1ccccc1)(Oc1ccccc1)Oc1ccccc1,inactive
11,CCCCn1c(=O)c(C(=O)Nc2cnccn2)c(O)c2ccccc21,"inconclusive: 3.16 µM [quencher, side channel, partial curve]"
12,O=C(NC(=O)c1c(F)cccc1F)Nc1cc(Cl)c(F)c(Cl)c1F,"inconclusive: 20 µM [fluorescent, side channel, partial curve]"
13,Nc1c(C(=O)OCC2CCCO2)c2nc3ccccc3nc2n1Cc1cccs1 (configuration not stated),"inconclusive: 28.2 µM [quencher, side channel, single point]"
14,O=c1c(O)c(-c2ccc(O)c(O)c2)oc2c(O)c(O)cc(O)c12,"inconclusive: 28.2 µM [quencher, side channel, single point]"
15,COc1ccc(OC)c(-n2c(O)c(/C=C3\C=Nc4ccccc43)c(=O)[nH]c2=O)c1,"inconclusive: 25.1 µM [quencher, side channel, partial curve]"
16,CC(=O)Nc1cc(Cl)c(N=Cc2ccc(O)cc2O)cc1Cl,"inconclusive: 28.2 µM [quencher, side channel, single point]"
17,NS(=O)(=O)c1ccc(-c2ccc(C=C3C(=O)NC(=O)NC3=O)o2)cc1,inactive
18,CCN(CC)C(=O)Cn1cc(C=C2C(=O)N(C)C(=O)N(C)C2=O)c2ccccc21,"inconclusive: 31.6 µM [inhibitor, single point]"
19,CN1C(=O)/C(=C/c2cccn2-c2ccc3ccccc3c2)C(=O)NC1=S,"inconclusive: 28.2 µM [quencher, side channel, single point]"

row,Structure (SMILES),Potency
1,CC(C)CCOP(=O)(c1ccc(N(C)C)cc1)C(O)c1c(Cl)cccc1Cl (configuration not stated),"inconclusive: 3.16 µM [fluorescent, side channel, full curve]"
2,COc1ccc(CN2CCCC(C(=O)c3ccc(Cl)cc3)C2)c(OC)c1 (configuration not stated),"inconclusive: 39.8 µM [inhibitor, single point]"
3,COc1ccc(NC(=O)C(=O)NNC(=O)C(C)Oc2ccc(Cl)cc2Cl)cc1 (configuration not stated),"inconclusive: 22.4 µM [quencher, side channel, single point]"
4,O=C1NC(=O)N(Cc2ccco2)C(=O)/C1=C\c1cccn1CCOc1ccc(Cl)cc1,"inconclusive: 17.8 µM [quencher, side channel, partial curve]"
5,CC1=C(/C=C/c2ccccc2)CCN(C)C1,"inconclusive: 1 µM [inhibitor, full curve]"
6,CSc1ccc(C(=O)C2CCCN(Cc3cc4ccccc4[nH]3)C2)cc1 (configuration not stated),inactive
7,CN1CC=C(/C=C/c2ccc(-c3ccccc3)cc2)CC1,inactive
8,CCC1(CC)C(=N)N(C)C(=O)NC1=O,inactive
9,O=C(Nc1cccc2ccccc12)c1nn(C23CC4CC(CC(C4)C2)C3)cc1Br,"inconclusive: 8.91 µM [fluorescent, side channel, full curve, poor fit]"
10,CCS(=O)(=O)N1N=C(c2cccc(NS(C)(=O)=O)c2)CC1c1ccccc1 (configuration not stated),"inconclusive: 31.6 µM [fluorescent, side channel, single point]"
11,CC(C)c1ccc(-n2c(O)c(/C=N/NC(=O)c3ccncc3)c(=O)[nH]c2=O)cc1,"inconclusive: 10 µM [quencher, side channel, partial curve]"
12,Fc1ccc2c(c1)nnn2C1CCN(Cc2nnnn2CCc2ccccc2)CC1,inactive
13,CNCCCN1c2ccccc2CCc2ccccc21,"inconclusive: 14.1 µM [fluorescent, side channel, partial curve]"
14,COc1cc2c(cc1OC)[C@@H]1C(=O)c3ccc(OC)c(CC=C(C)C)c3OC1CO2 (some centres not stated),inactive
15,COc1ccc(C(=O)O)cc1OC,inactive
16,c1ccc(-c2ccc(-c3n(-c4ccccn4)c4ccccc4[n+]3-c3ccccn3)cc2)cc1,"inconclusive: 11.2 µM [fluorescent, partial curve]"
17,O=C1C=Cc2ccccc2C1=O,"inconclusive: 10 µM [quencher, side channel, partial curve]"
18,C[C@]12CC[C@@H]3c4ccc(O)c(O)c4CC[C@H]3[C@@H]1CC[C@@H]2O,"inconclusive: 22.4 µM [quencher, side channel, single point]"
19,COc1ccc(C(=O)C2CCCN(Cc3ccsc3)C2)cc1OC (configuration not stated),"inconclusive: 50.1 µM [inhibitor, partial curve]"

# From PubChem BioAssay AID1768 (National Center for Advancing Translational Sciences (NCATS), 2009)
